Results from the supplement of paper PMC8728848.
The other results are listed elsewhere or left out.

Assays:
Test in all cases: glycan array binding signal (z-score within array); higher = stronger binding
Conditions in all cases: glycan notation: IUPAC condensed, linker removed
[1] = target: Fuc(a1-3)[Gal3S(b1-4)]GlcNAc
Summary of the method: (§1)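 Glycan array data came from 3228 arrays in the Consortium for Functional Glycomics database, and only arrays with an available protein sequence were kept. Glycan names were put into IUPAC-condensed notation, and columns mapping to the same glycan were averaged. The binding signal is a within-array Z-score, averaged across arrays of one protein sequence run at different concentrations or buffers and across linkers. A negative Z-score can be read as non-binding.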

[2] = target: Fuc(a1-3)[Gal3S(b1-4)]GlcNAc6S
Summary of the method: as §1

[3] = target: Fuc(a1-3)[GalNAc(b1-4)]GlcNAc
Summary of the method: as §1

[4] = target: Fuc(a1-3)[GalNAc(b1-4)]GlcNAc6S
Summary of the method: as §1

Fuc(a1-4)GlcNAc = target: Fuc(a1-4)GlcNAc
Summary of the method: as §1

Fuc(b1-3)GlcNAc = target: Fuc(b1-3)GlcNAc
Summary of the method: as §1

Gal(a1-2)Gal = target: Gal(a1-2)Gal
Summary of the method: as §1

Gal(a1-3)Gal = target: Gal(a1-3)Gal
Summary of the method: as §1

Gal(a1-3)Gal(b1-3)GlcNAc = target: Gal(a1-3)Gal(b1-3)GlcNAc
Summary of the method: as §1

[5] = target: Gal(a1-3)Gal(b1-3)GlcNAc(b1-2)Man
Summary of the method: as §1

[6] = target: Gal(a1-3)Gal(b1-3)GlcNAc(b1-2)Man(a1-3)[Gal(a1-3)Gal(b1-3)GlcNAc(b1-2)Man(a1-6)]Man(b1-4)GlcNAc(b1-4)GlcNAc
Summary of the method: as §1

[7] = target: Gal(a1-3)Gal(b1-3)GlcNAc(b1-3)GalNAc
Summary of the method: as §1

[8] = target: Gal(a1-3)Gal(b1-3)GlcNAc(b1-6)GalNAc
Summary of the method: as §1

[9] = target: Gal(a1-3)Gal(b1-3)[Fuc(a1-4)]GlcNAc(b1-2)Man(a1-3)[Gal(a1-3)Gal(b1-3)[Fuc(a1-4)]GlcNAc(b1-2)Man(a1-6)]Man(b1-4)GlcNAc(b1-4)GlcNAc
Summary of the method: as §1

Gal(a1-3)Gal(b1-4)Glc = target: Gal(a1-3)Gal(b1-4)Glc
Summary of the method: as §1

Gal(a1-3)Gal(b1-4)GlcNAc = target: Gal(a1-3)Gal(b1-4)GlcNAc
Summary of the method: as §1

[10] = target: Gal(a1-3)Gal(b1-4)GlcNAc(b1-2)Man
Summary of the method: as §1

[11] = target: Gal(a1-3)Gal(b1-4)GlcNAc(b1-2)Man(a1-3)[Gal(a1-3)Gal(b1-4)GlcNAc(b1-2)Man(a1-6)]Man(b1-4)GlcNAc(b1-4)GlcNAc
Summary of the method: as §1

[12] = target: Gal(a1-3)Gal(b1-4)GlcNAc(b1-3)GalNAc
Summary of the method: as §1

[13] = target: Gal(a1-3)Gal(b1-4)GlcNAc(b1-6)GalNAc
Summary of the method: as §1

[14] = target: Gal(a1-3)Gal(b1-4)[Fuc(a1-3)]GlcNAc
Summary of the method: as §1

[15] = target: Gal(a1-3)Gal(b1-4)[Fuc(a1-3)]GlcNAc(b1-2)Man(a1-3)[Gal(a1-3)Gal(b1-4)[Fuc(a1-3)]GlcNAc(b1-2)Man(a1-6)]Man(b1-4)GlcNAc(b1-4)GlcNAc
Summary of the method: as §1

Gal(a1-3)GalNAc = target: Gal(a1-3)GalNAc
Summary of the method: as §1

[16] = target: Gal(a1-3)[Gal(a1-4)]Gal(b1-4)GlcNAc
Summary of the method: as §1

[17] = target: Gal(a1-4)Gal(b1-3)GlcNAc(b1-2)Man(a1-3)[Gal(a1-4)Gal(b1-3)GlcNAc(b1-2)Man(a1-6)]Man(b1-4)GlcNAc(b1-4)GlcNAc
Summary of the method: as §1

Gal(a1-4)Gal(b1-4)Glc = target: Gal(a1-4)Gal(b1-4)Glc
Summary of the method: as §1

Gal(a1-4)Gal(b1-4)GlcNAc = target: Gal(a1-4)Gal(b1-4)GlcNAc
Summary of the method: as §1

[18] = target: Gal(a1-4)Gal(b1-4)GlcNAc(b1-2)Man(a1-3)[Gal(a1-4)Gal(b1-4)GlcNAc(b1-2)Man(a1-6)]Man(b1-4)GlcNAc(b1-4)GlcNAc
Summary of the method: as §1

[19] = target: Gal(a1-4)Gal(b1-4)GlcNAc(b1-3)Gal(b1-4)Glc
Summary of the method: as §1

Gal(a1-4)GlcNAc = target: Gal(a1-4)GlcNAc
Summary of the method: as §1

Gal(a1-6)Glc = target: Gal(a1-6)Glc
Summary of the method: as §1

Gal(b1-2)Gal = target: Gal(b1-2)Gal
Summary of the method: as §1

Gal(b1-3)Gal = target: Gal(b1-3)Gal
Summary of the method: as §1

Gal(b1-3)Gal(b1-4)GlcNAc = target: Gal(b1-3)Gal(b1-4)GlcNAc
Summary of the method: as §1

Gal(b1-3)GalNAc = target: Gal(b1-3)GalNAc
Summary of the method: as §1

[20] = target: Gal(b1-3)GalNAc(a1-3)[Fuc(a1-2)]Gal(b1-4)Glc
Summary of the method: as §1

[21] = target: Gal(b1-3)GalNAc(a1-3)[Fuc(a1-2)]Gal(b1-4)GlcNAc
Summary of the method: as §1

B1: SRA-1 (Homo sapiens), P21757 (protein)
chain: MEQWDHFHNQQEDTDSCSESVKFDARSMTALLPPNPKNSPSLQEKLKSFKAALIALYLLVFAVLIPLIGIVAAQLLKWETKNCSVSSTNANDITQSLTGKGNDSEEEMRFQEVFMEHMSNMEKRIQHILDMEANLMDTEHFQNFSMTTDQRFNDILLQLSTLFSSVQGHGNAIDEISKSLISLNTTLLDLQLNIENLNGKIQENTFKQQEEISKLEERVYNVSAEIMAMKEEQVHLEQEIKGEVKVLNNITNDLRLKDWEHSQTLRNITLIQGPPGPPGEKGDRGPTGESGPRGFPGPIGPPGLKGDRGAIGFPGSRGLPGYAGRPGNSGPKGQKGEKGSGNTLTPFTKVRLVGGSGPHEGRVEILHSGQWGTICDDRWEVRVGQVVCRSLGYPGVQAVHKAAHFGQGTGPIWLNEVFCFGRESSIEECKIRQWGTRACSHSEDAGVTCTL
glycan array binding signal (z-score) [1]: 0.315 | glycan array binding signal (z-score) [2]: 0.048 | glycan array binding signal (z-score) [3]: 1 | glycan array binding signal (z-score) [4]: 0.758 | glycan array binding signal (z-score) (Fuc(a1-4)GlcNAc): 0.616 | glycan array binding signal (z-score) (Fuc(b1-3)GlcNAc): -0.343 | glycan array binding signal (z-score) (Gal(a1-2)Gal): -0.324 | glycan array binding signal (z-score) (Gal(a1-3)Gal): -0.163 | glycan array binding signal (z-score) (Gal(a1-3)Gal(b1-3)GlcNAc): 0.035 | glycan array binding signal (z-score) [5]: -0.15 | glycan array binding signal (z-score) [6]: 0.219 | glycan array binding signal (z-score) [7]: -0.388 | glycan array binding signal (z-score) [8]: -0.158 | glycan array binding signal (z-score) [9]: -0.307 | glycan array binding signal (z-score) (Gal(a1-3)Gal(b1-4)Glc): 0.104 | glycan array binding signal (z-score) (Gal(a1-3)Gal(b1-4)GlcNAc): -0.529 | glycan array binding signal (z-score) [10]: -0.666 | glycan array binding signal (z-score) [11]: 0.005 | glycan array binding signal (z-score) [12]: 0.35 | glycan array binding signal (z-score) [13]: -0.248 | glycan array binding signal (z-score) [14]: 0.249 | glycan array binding signal (z-score) [15]: 0.45 | glycan array binding signal (z-score) (Gal(a1-3)GalNAc): -0.336 | glycan array binding signal (z-score) [16]: 0.417 | glycan array binding signal (z-score) [17]: -0.52 | glycan array binding signal (z-score) (Gal(a1-4)Gal(b1-4)Glc): 4.58 | glycan array binding signal (z-score) (Gal(a1-4)Gal(b1-4)GlcNAc): -0.083 | glycan array binding signal (z-score) [18]: 0.243 | glycan array binding signal (z-score) [19]: 0.03 | glycan array binding signal (z-score) (Gal(a1-4)GlcNAc): -0.452 | glycan array binding signal (z-score) (Gal(a1-6)Glc): -0.338 | glycan array binding signal (z-score) (Gal(b1-2)Gal): -0.488 | glycan array binding signal (z-score) (Gal(b1-3)Gal): 0.586 | glycan array binding signal (z-score) (Gal(b1-3)Gal(b1-4)GlcNAc): 0.14 | glycan array binding signal (z-score) (Gal(b1-3)GalNAc): -0.106 | glycan array binding signal (z-score) [20]: -0.14 | glycan array binding signal (z-score) [21]: 0.047
